In patent publication US20250179210A1, “ANTI-CEACAM5 ANTIBODIES AND CONJUGATES AND USES THEREOF” (Merck Patent GmbH, priority 2022, published 2025):

B1: ADC1-M (conjugate)
heavy: EVQLQESGPGLVKPSQTLSLTCTVSDGSVSRGGYYLTWIRQHPGKGLEWIGYIYYSGSTYFNPSLRSRVTMSVDTSKNQFSLKLSSVTAADTAVYYCARGIAVAPFDYWGQGTLVTVSSASTKGPSVFPLAPSSKSTSGGTAALGCLVKDYFPEPVTVSWNSGALTSGVHTFPAVLQSSGLYSLSSVVTVPSSSLGTQTYICNVNHKPSNTKVDKRVEPKSCDKTHTCPPCPAPEAAGGPSVFLFPPKPKDTLYITREPEVTCVVVDVSHEDPEVKFNWYVDGVEVHNAKTKPREEQYNSTYRVVSVLTVLHQDWLNGKEYKCKVSNKALPAPIEKTISKAKGQPREPQVYTLPPSREEMTKNQVSLTCLVKGFYPSDIAVEWESNGQPENNYKTTPPVLDSDGSFFLYSKLTVDKSRWQQGNVFSCSVMHEALHNHYTQKSLSLSPG
light: EIVLTQSPATLSVSPGERATLSCRTSQSVRSNLAWYQQKPGQAPRLLIYAASTRATGIPARFSGSGSGTEFTLTISSLQSEDFAVYYCQQYTNWPFTFGPGTKVDIKRTVAAPSVFIFPPSDEQLKSGTASVVCLLNNFYPREAKVQWKVDNALQSGNSQESVTEQDSKDSTYSLSSTLTLSKADYEKHKVYACEVTHQGLSSPVTKSFNRGEC
B2: ADC2-M (conjugate)
heavy: EVQLQESGPGLVKPSQTLSLTCTVSDGSVSRGGYYLTWIRQHPGKGLEWIGYIYYSGSTYFNPSLRSRVTMSVDTSKNQFSLKLSSVTAADTAVYYCARGIAVAPFDYWGQGTLVTVSSASTKGPSVFPLAPSSKSTSGGTAALGCLVKDYFPEPVTVSWNSGALTSGVHTFPAVLQSSGLYSLSSVVTVPSSSLGTQTYICNVNHKPSNTKVDKRVEPKSCDKTHTCPPCPAPEAAGGPSVFLFPPKPKDTLYITREPEVTCVVVDVSHEDPEVKFNWYVDGVEVHNAKTKPREEQYNSTYRVVSVLTVLHQDWLNGKEYKCKVSNKALPAPIEKTISKAKGQPREPQVYTLPPSREEMTKNQVSLTCLVKGFYPSDIAVEWESNGQPENNYKTTPPVLDSDGSFFLYSKLTVDKSRWQQGNVFSCSVMHEALHNHYTQKSLSLSPG
light: EIVLTQSPATLSVSPGERATLSCRTSQSVRSNLAWYQQKPGQAPRLLIYAASTRATGIPARFSGSGSGTEFTLTISSLQSEDFAVYYCQQYTNWPFTFGPGTKVDIKRTVAAPSVFIFPPSDEQLKSGTASVVCLLNNFYPREAKVQWKVDNALQSGNSQESVTEQDSKDSTYSLSSTLTLSKADYEKHKVYACEVTHQGLSSPVTKSFNRGECGGTLQSPP

Legend:
SK-CO-1 = experiment: Viability assay (Cell Titer-Glo); assay type: cell-based, human; conditions: Table 3; at the highest tested compound concentration
MDA-MB-231 = experiment: Viability assay (Cell Titer-Glo); assay type: cell-based, human; conditions: Table 3; for MDA-MB-231 maximal effect compared to untreated controls: at the highest tested compound concentration
[1] = system: human patient-derived gastric xenograft model GAPF313; experiment: Gastric PDX mouse model GAPF313; assay type: in vivo
Protocol: (§1) Anti-tumor efficacy in vivo was evaluated in the human patient-derived gastric xenograft model GAPF313 (Shanghai LideBiotech CO., LTD). Tumor fragments were transplanted subcutaneously into the right flank of six to eight weeks old immunodeficient female mice (NU-Foxn1nu, Charles River). […] Tumor length (L) and width (W) were measured with calipers and tumor volumes were calculated using the formula L×(W^2)/2.
Anti-tumor efficacy of ADC1-M and ADC3-M in comparison to ADC SAR DM4 has been evaluated in the human GC xenograft model GAPF313. The study was performed at Lide Biotech (Shanghai). Six to eight weeks old immunodeficient female mice (Crl: NU-Foxn1nu) were transplanted subcutaneously in the right flank with GAPF313 tumor fragments. When tumors reached a mean volume of 176 mm^3 6 mice/group were treated intravenously every other week (3 cycles) with vehicle (saline solution) or with 4 mg/kg ADC1-M or ADC3-M or 4.7 mg/kg ADC SAR DM4. Tumor length (L) and width (W) were measured with calipers and tumor volumes were calculated using L×W^2/2.

[2] = system: human pancreatic cell line derived xenograft model HPAF-II; experiment: Pancreatic cell line derived xenograft model HPAF-II; assay type: in vivo, mouse; conditions: for anti-tumor effect: single i.v. treatment
Protocol: 5×10^6 HPAF-II cells were injected subcutaneously into the right flank of six to eight weeks old immunodeficient female mice (Hsd:Athymic Nude-Foxn1nu, Envigo). […] Tumor length (L) and width (W) were measured with calipers and tumor volumes were calculated using L×(W^2)/2.
Efficacy of ADC1-M and ADC3-M in comparison to ADC8 was evaluated in the human pancreatic adenocarcinoma, cell line-derived xenograft model HPAF-II (ATCC, CRL-1997). Six to eight weeks old immunodeficient female mice (Hsd:Athymic Nude-Foxn1nu, Envigo) were injected subcutaneously in the right flank with 5×10^6 HPAF-II cells. When tumors reached a mean volume of 150 mm^3, 10 mice/group were treated once intravenously with ADC1-M (1 mg/kg or 6 mg/kg) or with ADC3-M (1 mg/kg or 6 mg/kg) or with ADC8 (1 mg/kg or 6 mg/kg). Tumor length (L) and width (W) were measured with calipers and tumor volumes were calculated using L×W^2/2.

SNU-16 = experiment: Viability assay (Cell Titer-Glo); assay type: cell-based, human; conditions: Table 3; at the highest tested compound concentration
[3] = Pharmacokinetic study in human FcRn transgenic mice; conditions: for C0: back extrapolation; for t1/2: total antibody
[4] = system: human patient-derived CRC xenograft model COPF230; experiment: CRC PDX mouse model COPF230; assay type: in vivo; conditions: for efficacy compared to ADC SAR DM4 in CRC PDX models (expected): COPF230 and REPF210
Protocol: as §1, with “CRC” for “gastric”, “models COPF230 and REPF210” for “model GAPF313”
Anti-tumor efficacy of ADC1-M and ADC3-M in comparison to ADC SAR DM4 was in the human CRC xenograft model COPF230. The study was performed at Lide Biotech (Shanghai). Six to eight weeks old immunodeficient female mice (Crl: NU-Foxn1nu) were transplanted subcutaneously in the right flank with COPF230 tumor fragments. When tumors reached a mean volume of 165 mm^3 6 mice/group were treated once intravenously with vehicle (saline solution) or with ADC1-M, ADC3-M or ADC SAR DM4 (each 6 mg/kg). Tumor length (L) and width (W) were measured with calipers and tumor volumes were calculated using L×W^2/2.

[5] = system: human pancreatic, cell line derived xenograft model BxPC3; experiment: Pancreatic cell line derived xenograft model BxPC3; assay type: in vivo, mouse; conditions: single i.v. treatment; ADC1-M 5 mg/kg, ADC2-M 5 mg/kg or 10 mg/kg
Protocol: Efficacy of ADC1-M and ADC2-M has been evaluated in the human pancreatic, cell line derived xenograft model BxPC3 (ATCC, CRL-1687). 5×10^6 BxPC3 cells were injected subcutaneously into the right flank of six to eight weeks old immunodeficient female mice (Hsd:Athymic Nude-Foxn1nu, Envigo). When tumors reached a mean volume of 85 mm^3, 10 mice/group were treated once intravenously with vehicle (saline solution) or ADC1-M (5 mg/kg; day 0) or with ADC2-M (5 mg/kg or 10 mg/kg; day 0). Tumor length (L) and width (W) were measured with calipers and tumor volumes were calculated using L×(W^2)/2.

[6] = system: CEACAM5-negative MDA-MB-231 cells in co-culture with CEACAM5-positive SK-CO-1 cells; experiment: Bystander assay; assay type: cell-based, human; conditions: for non-specific effect on MDA-MB-231 cells alone (only controls) / bystander effect against CEACAM5-negative MDA-MB-231 cells in the presence of CEACAM5-positive SK-CO-1: ADC concentration of 1 nM; for bystander effect against CEACAM5-negative MDA-MB-231 cells in the presence of CEACAM5-positive SK-CO-1: six days; for bystander effect compared to ADC SAR DM4: co-culture, 1 nM
Protocol: Cytotoxicity effects of ADCs on antigen-negative cancer cell lines in co-culture with antigen-positive cancer cell lines were measured by bystander assays. One thousand CEACAM5-negative MDA-MB-231 cells were seeded in co-culture experiments with 750 or 3000 CEACAM5-positive SK-CO-1 cells per well. As a control, 1000 MDA-MB-231 cells only were seeded in parallel. Cells were seeded in a total volume of 90 μL in 96-well plates the day before treatment. Test compounds were formulated at 10-fold the final concentration of 1E-9 M in cell culture medium and 10 μL was added to the cells in duplicates. Plates were cultured at 37° C. in a CO2 incubator for six days.
Prior to immunofluorescence staining, medium was removed and cells were treated with 100% methanol (−20° C.) for 30 minutes. After methanol removal and one PBS wash step, cells were treated with 2.5% paraformaldehyde (PFA) with 0.2% Triton X-100 in PBS for 15 minutes at room temperature. After solution removal and one PBS wash step, cells were treated with 1% BSA/0.1% Tween/0.1% sodium azide in PBS for at least one hour at room temperature. Antigen-positive and antigen-negative cells were discriminated by immunofluorescence staining with 10 μg/mL human anti-CEACAM5 (mAb1) primary antibody and 1:2000 dilution of donkey anti-human IgG fluorescently (phycoerythrin) labeled secondary antibody (Jackson ImmunoResearch #709-116-149). Cells were identified by nuclei staining using 1 μg/mL Hoechst 33342 (Life technologies, cat #H3570) dye. Staining was carried out in 1% BSA/0.1% sodium azide PBS solutions for 30 minutes at room temperature. Secondary antibody staining was combined with Hoechst dye staining. Between and after staining steps, cells were washed thrice with PBS.
Plates were imaged with the confocal quantitative image cytometer CQ1 (Yokogawa® Electric Corporation, Tokyo, Japan). Analysis was adapted from the CQ1 software (Yokogawa) template “Nucleus and pseudo-Cell body” and FCS export files were analyzed using FlowJo (BD). Based on staining or absence of staining with fluorescently labeled antibody around the nucleus, antigen-positive and antigen-negative cells were distinguished and quantified. Bar graphs show the number of identified antigen-positive and antigen-negative cells per treatment condition.

MKN-45 = experiment: Viability assay (Cell Titer-Glo); assay type: cell-based, human; conditions: Table 3; at the highest tested compound concentration
LS174T = experiment: Viability assay (Cell Titer-Glo); assay type: cell-based, human; conditions: Table 3; at the highest tested compound concentration

Molecule	SK-CO-1 maximal effect compared to untreated controls (SK-CO-1)	MDA-MB-231 maximal effect compared to untreated controls (MDA-MB-231)	efficacy compared to ADC SAR DM4 (expected) [1]	efficacy compared to ADC3 (expected) [2]	SNU-16 maximal effect compared to untreated controls (SNU-16)	AUCinf ([3]; 3 mg/kg i.v., HuFcRn mice)	AUClast ([3]; 3 mg/kg i.v., HuFcRn mice)	Cl ([3]; 3 mg/kg i.v., HuFcRn mice)	Tlast ([3]; 3 mg/kg i.v., HuFcRn mice)	Vss ([3]; 3 mg/kg i.v., HuFcRn mice)	Vz ([3]; 3 mg/kg i.v., HuFcRn mice)	C0 ([3]; 3 mg/kg i.v., HuFcRn mice)	t1/2 ([3]; 3 mg/kg i.v., HuFcRn mice)	efficacy compared to ADC SAR DM4 in CRC PDX models (expected) [4]	anti-tumor effect [5]	non-specific effect on MDA-MB-231 cells alone (only controls) [6]	bystander effect against CEACAM5-negative MDA-MB-231 cells in the presence of CEACAM5-positive SK-CO-1 [6]	bystander effect compared to ADC SAR DM4 [6]	bystander effect compared to ADC SAR (expected) [6]	MKN-45 maximal effect compared to untreated controls (MKN-45)	also measured
B1	(−95%)	(−71%)	compare similarly favorably to ADC SAR DM4	compare similarly favorably to ADC3	(−97%)	2590 µg·h/mL	2580 µg·h/mL	27.8 mL/day/kg	504 h	0.113 L/kg	0.108 L/kg	49.9 µg/mL	64.5 h	compare similarly favorably to ADC SAR DM4	significant anti-tumor effect	no non-specific effect	potent bystander effect	much more potent bystander effect	more potent bystander effects than ADC SAR	(−96%)	IC50 (MDA-MB-231; n ≥ 3, CEACAM5 Negative, cut-off for potency reporting −50% effect, otherwise n/a): > 10 nM; anti-tumor effect ([1]; i.v. every other week (3 cycles), 4 mg/kg ADC1-M or ADC3-M, 4.7 mg/kg ADC SAR DM4): comparable and significant anti-tumor effect; anti-tumor effect ([2]; 1 mg/kg): minor and temporary anti-tumor effect; anti-tumor effect ([2]; 6 mg/kg): much stronger anti-tumor effect; %_Ext ([3]; 3 mg/kg i.v., HuFcRn mice, extrapolated part of AUCinf): 0.4%; anti-tumor effect ([4]; single i.v. treatment, 6 mg/kg): comparable and significant anti-tumor effect; LS174T maximal effect compared to untreated controls (LS174T): (−86%)
B2	(−92%)	(−16%)	compare similarly favorably to ADC SAR DM4	compare similarly favorably to ADC3	(−78%)	10200 µg·h/mL	8360 µg·h/mL	7.03 mL/day/kg	504 h	0.877 L/kg	0.0802 L/kg	56.1 µg/mL	190 h	compare similarly favorably to ADC SAR DM4	significant anti-tumor effect	no non-specific effect	potent bystander effect	much more potent bystander effect	more potent bystander effects than ADC SAR	(−80%)	PK profile (plasma exposure, Cl, t½) ([3]; single iv administration of 3 mg/kg in transgenic mice): best PK profile; LS174T maximal effect compared to untreated controls (LS174T): (−67%)
